Molecules are shown by their SMILES. About 200 (0.44%) of roughly 45,000 compounds were called active. About 7% were inconclusive and are not listed. Calls follow the shape of the dose curve; as a rule, active = well fitted activation curve with a large enough effect; inconclusive = small, poorly fitted or top-dose-only effect; inactive = no such curve, though single readings can be large or run the other way. The list shows a part of the results.
Potency is read from the fitted curve at half-maximal effect.

The nature of this experiment: qHTS of TDP-43 Inhibitors: NCGC Sytravon Library Screen. Also: nearly all actives have a fitted effect of over 55% in size. As to growth rescue (activation): 0% is about no effect. Conditions: yeast TDP-43 toxicity rescue, BacTiter-Glo growth, 24 h; series mostly up to 46.1 µM; growth rescue (activation): at the top concentration. The method in brief: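 TDP-43-expressing yeast, pregrown in raffinose, seeded at OD600 0.02 in galactose medium with compound for 24 hr at 30 deg C. Growth read by BacTiter-Glo luminescence, so rescue of toxicity appears as activation.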
A general note: qHTS replaces the single test concentration by a dilution series.
Turning to `CCCCN(S(=O)(=O)c1ccccc1)S(=O)(=O)c1ccccc1`, the “growth rescue (activation)” value is inactive: 13.1%.
With `COc1ccc(OC)c(NC(=O)c2cccc(N3C(=O)C4C5CCC(C5)C4C3=O)c2)c1` (stereo not given), the “growth rescue (activation)” value is inactive: -8.64%.
The same measure, in the same setting: the value for `O=[N+]([O-])c1cccc(S(=O)(=O)NCCCN2CCOCC2)c1` was inactive: 16.1%; that for `CCN(CC)S(=O)(=O)c1ccc(C(=O)Nc2nnc(NC(=S)Nc3ccccc3)s2)cc1` was inactive: 14.6%; that for `CCN=C1S/C(=C/c2ccc(-c3ccc(Cl)cc3C(=O)O)o2)C(=O)N1CC` was inactive: 7.04%.
Consider `COCCn1c(C)nnc1SCC(=O)NNC(=O)c1ccc(Br)cc1`, for which the “growth rescue (activation)” value is inactive: -5.88%.
On to `CCn1c(C(=O)NCc2cccc(Br)c2)cc2oc3ccccc3c21`, for which the “growth rescue (activation)” value was inactive: 11.3%.
Turning to `COC(=O)c1ccc(COC(=O)c2cnc(Cl)c(Cl)c2)cc1`, the “growth rescue (activation)” value was inactive: 0.254%.
As to `CCCCn1c(N)c(N(CCC(C)C)C(=O)COC(=O)c2cccnc2SC)c(=O)[nH]c1=O`, the “growth rescue (activation)” value is inactive: 0.0527%.
For `Cc1ccc(-n2nnnc2SCC#N)cc1`, the “growth rescue (activation)” value was inactive: 9.67%.
Consider `Cc1cc(=O)oc2cc(OCC(O)CN3CCc4ccccc4C3)ccc12` (stereo not given), for which the “growth rescue (activation)” value was inactive: -32.7%.
On the same count and under the same terms, the value for `Cc1ccc2nc(N3C(=O)C(O)=C(C(=O)c4ccco4)C3c3ccc(C)o3)sc2c1` (stereo not given) was inactive: -22.4%; that for `O=C(Nc1ccc(F)cc1)C(c1ccccc1)N1CCN(S(=O)(=O)c2ccc3ccccc3c2)CC1` (stereo not given) was inactive: 5.26%.
Consider `O=C(COC(=O)CSc1ccc2ccccc2c1Br)NC1CC1`, for which the Potency is active: 22.4 µM.
As for `O=C(NCCCNC(=O)c1ccco1)c1cccc(F)c1`, the “growth rescue (activation)” value is inactive: 9.58%.
On to `COc1ccccc1CNC(=O)COc1cccnc1[N+](=O)[O-]`, for which the “growth rescue (activation)” value is inactive: 5.01%.
Take `O=C(NC(c1ccccc1)c1cnccn1)C1CCN(CCCOc2ccccc2)CC1` (stereo not given): the “growth rescue (activation)” value is inactive: 7.95%.
For `CN1CCN(c2nc(-c3ccccc3O)nc3ccccc23)CC1`, the “growth rescue (activation)” value is inactive: 9.17%.
For the compound `COc1ccc(OC(F)(F)F)cc1CC1(C)C(=O)Nc2ccc(S(=O)(=O)NC3CCCCC3)cc21` (stereo not given), the “growth rescue (activation)” value was inactive: 6.76%.
`Fc1ccccc1N=C1Nc2cccc3cccc1c23`: the “growth rescue (activation)” value is inactive: 5.3%.
With `CCCc1cc(=O)[nH]c(SCC(=O)Nc2ccc(N3CCCCC3)cc2)n1`, the “growth rescue (activation)” value is inactive: -5.36%.
`Brc1ccc(OCCCN2CCOCC2)cc1`: the “growth rescue (activation)” value was inactive: 7.48%.
For the compound `CC(C)c1ccc(Nc2ncc3c(n2)CCN(C(=O)NC2CCCCC2)C3)cc1`, the “growth rescue (activation)” value was inactive: 25.6%.
Regarding `Cc1ccc(CN(C)C(=O)c2cc(Br)c(Br)s2)o1`, the “growth rescue (activation)” value is inactive: 11.3%.
Take `O=C(CC(Nc1ccccc1)C(=O)O)c1ccccc1` (stereo not given): the “growth rescue (activation)” value was inactive: 30%.
`CCCS(=O)(=O)Nc1c(C(=O)O)[nH]c2ccc(OC)cc12`: the “growth rescue (activation)” value is inactive: 1.05%.
Still for that read-out and setting: in the case of `Cn1c(SCC(=O)N2c3ccccc3CCc3ccccc32)nnc1-c1ccc(O)cc1` it was inactive: -24.2%; in that of `N#CCCn1cc(C(=O)Nc2ccc(C(=O)O)cc2)c(-c2ccc([N+](=O)[O-])cc2)n1`, inactive: -10.9%; in that of `COc1ccc(C2N(c3ccc(C)cc3)CCN2c2ccc(C)cc2)cc1O`, inactive: 0.708%.
The same measure, in the same setting: the value for `O=C(Nc1ccc(S(=O)(=O)NCC2CCCO2)cc1)c1cccc(F)c1` (stereo not given) was inactive: 19.6%; that for `O=C(NC1CCSC1=O)C1CCCCC1` (stereo not given) was inactive: 17.2%; that for `CC(C)COP(=O)(OCC(C)C)C(Nc1ccccc1)c1ccc(F)cc1` (stereo not given) was inactive: 9.43%.
Take `Cc1ccc([N+](=O)[O-])cc1N=C1C(=O)Nc2ccccc21`: the “growth rescue (activation)” value is inactive: -16.6%.
Regarding `CC(O)CNCc1ccc(Cl)cc1Cl` (stereo not given), the “growth rescue (activation)” value is inactive: -5.86%.
Regarding `Cc1cc(C)c(NC(=O)Cn2nc(-c3ccccc3)nc2-c2ccccc2)c(C)c1`, the “growth rescue (activation)” value is inactive: 4.44%.
On the same count and under the same terms, the value for `CC(C)c1ccc(/C=C(\c2nc3ccccc3[nH]2)S(=O)(=O)c2ccccc2)cc1` was inactive: 25.9%; that for `CCCNC(=O)N1CCN(Cc2ccco2)CC1` was inactive: -5.76%; that for `Cc1cccc(OC(C)C(=O)Nc2ccc3c(c2)OCCO3)c1` (stereo not given) was inactive: -3.03%.
Same read-out and setting: in the case of `O=C(Nc1cc(Oc2ccc(Cl)cc2)cc([N+](=O)[O-])c1)c1ccco1` it was inactive: 14.4%.
On the same count and under the same terms, the value for `CCC(C)NC(=O)c1cc2c(=O)[nH]c3ccc(C)cc3c2s1` (stereo not given) was inactive: -9.06%; that for `COC(=O)CCC(=O)Nc1cccc([N+](=O)[O-])c1` was inactive: 10.9%; that for `COc1cccc(-n2cc(CN(C)Cc3nc(Cc4ccccc4)no3)cn2)c1` was inactive: -5.88%.
In the case of `O=C(NC1CCCC1)C(c1ccccn1)N(C(=O)c1csnn1)c1ccccc1F` (stereo not given), the “growth rescue (activation)” value is inactive: 18.8%.
For `COc1ccc(-c2ccc(C(=O)NCC3CCOCC3)c3occc23)c(C)c1`, the “growth rescue (activation)” value was inactive: 14.9%.
On to `CCN(CC)C(=O)C(C(=O)c1cccc([N+](=O)[O-])c1)n1cc(Cl)ccc1=O` (stereo not given), for which the “growth rescue (activation)” value was inactive: -6.83%.
`CC(=O)Nc1ccc(NC(=O)c2ccc(NS(=O)(=O)c3cccc4cccnc34)cc2)cc1`: the “growth rescue (activation)” value is inactive: 10.1%.
As for `COc1ccc(C(=O)n2cc(C(=O)c3cc(C)ccc3O)cn2)cc1`, the “growth rescue (activation)” value is inactive: 1.09%.
With `Cc1ccc(N2CC(C(=O)Nc3ccc(S(=O)(=O)NCC4CCCO4)cc3)CC2=O)cc1C` (stereo not given), the “growth rescue (activation)” value was inactive: 23.6%.
As for `O=C(O)C1CSC(CCc2ccccc2)N1` (stereo not given), the “growth rescue (activation)” value was inactive: 24.7%.
As for `CC1CCCCN1Cc1c(C#N)c2ccccc2n1C` (stereo not given), the “growth rescue (activation)” value was inactive: 0.149%.
In the case of `CC1(C(=O)NS(=O)(=O)c2cccc(Cl)c2)CCN1C(=O)Cc1cc(F)ccc1F` (stereo not given), the “growth rescue (activation)” value was inactive: 5.04%.
Still for that read-out and setting: in the case of `COc1cccc(NC(=O)C2(C)CCN2C(=O)C2CCCCC2)c1` (stereo not given) it was inactive: 30%; in that of `COc1cc(/C=C/c2cc(C(F)(F)F)[nH]c(=O)n2)cc(OC)c1OC`, inactive: -20.9%; in that of `CCOc1ccc(NC(=O)Nc2nnc(CC(=O)NCc3ccccc3)s2)cc1`, inactive: -2.51%.
Consider `Cn1nnnc1SCCCNCc1cccc(OCc2ccc(Cl)cc2)c1`, for which the “growth rescue (activation)” value is inactive: 30%.
The same measure, in the same setting: the value for `CCNC(=O)C1CCCN(C(=O)c2ccc(OC(F)F)cc2)CC1` (stereo not given) was inactive: -3.53%; that for `O=C(CN(Cc1ccccc1)C(=O)CNS(=O)(=O)c1ccccc1)NCC1CCCO1` (stereo not given) was inactive: 14.9%; that for `CCC(c1nnnn1Cc1ccc(F)cc1)N1CCN(C)CC1` (stereo not given) was inactive: 1.4%.
Consider `CCN(CC)CCNC(=O)c1cc(Sc2nnc(C)s2)nc2ccccc12`, for which the “growth rescue (activation)” value was inactive: 11.3%.
As to `Cc1cc(=O)[nH]c(SCc2cn3ccccc3n2)n1`, the “growth rescue (activation)” value is inactive: -14.9%.
In the case of `COc1ccc(-c2cn(-c3ccccc3)c3[n+]2CCS3)cc1`, the “growth rescue (activation)” value is inactive: -0.941%.
With `CC1(C(=O)NS(=O)(=O)Cc2cccc(Cl)c2)CCN1C(=O)C1CCCCC1` (stereo not given), the “growth rescue (activation)” value was inactive: -7.94%.
As for `COc1ccccc1OCCn1cc(C(=O)c2cccs2)c2ccccc21`, the “growth rescue (activation)” value is inactive: 17.8%.
Regarding `CC(NC(=O)Cn1cnnn1)c1cccc(C(F)(F)F)c1` (stereo not given), the “growth rescue (activation)” value is inactive: 9.73%.
Same read-out and setting: in the case of `Cc1ccc(NC(=O)CN(C)C(=O)Cc2ccc(Cl)cc2Cl)cc1` it was inactive: 13%; in that of `COc1ccccc1NS(=O)(=O)c1cc(N)ccc1N1CCOCC1`, inactive: 3.23%.
For `OCC1(Cc2ccccc2C(F)(F)F)CCN(Cc2ccccc2)CC1`, the “growth rescue (activation)” value is inactive: 9.28%.
Same read-out and setting: in the case of `CCNc1nc(C23CC4CC(CC(C4)C2)C3)cs1` it was inactive: 1.98%.
As to `Nc1nc(NC(=O)CCC(=O)O)nn1-c1ccccc1`, the “growth rescue (activation)” value was inactive: -7.26%.
As to `COc1ccc(CCCC(=O)Nc2ccc(F)cc2)cc1`, the “growth rescue (activation)” value was inactive: 33%.
